Inconclusive results, whose numbers are uncertain, are shown with a selection of clear calls. Activity calls are given as the source filed them. Calls come from the whole dose curve; as a rule, active = well fitted curve in either direction with a large enough effect (not every such curve was filed as active); inconclusive = small, poorly fitted or top-dose-only effect, or another doubt; inactive = flat fitted curve, though single readings scatter.
Test: NFAT Signaling Pathway (AID 444);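 note: carbachol stimulus at about its EC50 of 1 µM final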
Settings: Jurkat NFAT-bla M1, carbachol, beta-lactamase ratio, 5 h; at 17.2 µM (top of the series) unless noted
In short: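 Jurkat cells carrying an NFAT-driven β-lactamase reporter and co-transfected muscarinic M1 receptor were treated with compound plus carbachol (1 uM final, an EC50 level) for 5 h at 37 °C. CCF4 loading followed for 1 h at RT; 460/530 nm ratio gave %activity.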
% is set by controls: 0 for no effect and ±100 for the full control effect.

Compound	activity change, negative = inhibition
COc1cc(OC)cc(C(=O)N2CCC(N3CCN(c4ccccc4)CC3)CC2)c1	inactive: -4.18%
c1ccc2c(c1)CCOC2CNCCCN1CCCCC1 (configuration not stated)	inconclusive: -37.9% [inhibitor]
Cn1c(=O)c(-c2ccc(F)c(F)c2)nc2cncnc21	inactive: -5.02% [at 7.69 µM]
CC(C)OC(=O)c1sc2nc3c(cc2c1N)C(=O)CCC3	inactive: 7.77%
CCOC(=O)c1[nH]c2ccccc2c1NC(=O)CN(C)C	inactive: -6.47%
COC(=O)N1CCC2(CC1)CN(c1ccncc1)C2	inconclusive: -52.8% [inhibitor] [at 7.69 µM]
Cc1noc(C)c1C(=O)N1CCC2(CCCN(c3ccncc3)C2)CC1	inconclusive: -48.6% [inhibitor] [at 7.69 µM]
Nc1ncnc2nc(-c3ccc(C[P+](c4ccccc4)(c4ccccc4)c4ccccc4)cc3)[nH]c12	inconclusive: -69.8% [inhibitor] [at 7.69 µM]
COc1cccc(C2C(C(=O)c3sc(C)nc3C)=C(O)C(=O)N2CCN2CCOCC2)c1OC (configuration not stated)	inactive: 12.8%
O=C(c1cc(C(F)(F)F)cc(C(F)(F)F)c1)N1CCC2(CCCN(c3ccccc3)C2)CC1	inconclusive: -38.8% [inhibitor] [at 7.69 µM]
COC(=O)c1ccc(C2C(C(=O)c3cc4ccccc4o3)=C(O)C(=O)N2CCCN(C)C)cc1 (configuration not stated)	inconclusive: 9.3% [inhibitor]
Cc1cc(C)n(CC2CC(=O)N(c3ccc(F)c(Cl)c3)C2=O)n1 (configuration not stated)	inconclusive: 14.1% [inhibitor]
Nc1nc(-c2ccccc2)c(-c2ccccc2)c(-c2nc(N)nc(-c3ccccc3)c2-c2ccccc2)n1	inactive: 16.1% [at 7.69 µM]
COCc1[nH]nc2c1C(c1ccc(OC)cc1)C(C#N)=C(N)O2 (configuration not stated)	inconclusive: -49.4% [inhibitor]
CN1CCN(C(=O)CSc2nc(-c3cccs3)ccc2C#N)CC1	inconclusive: -35.6% [inhibitor]
CC(=O)N1CCC[C@@]2(CCN(C(=O)Nc3ccccc3)C2)C1	inactive: 22.8% [at 7.69 µM]
O=c1[nH]c(CN2CCCCC2)nc2c1C1(CCCC1)Cc1ccccc1-2	inconclusive: -31% [inhibitor]
CCN(CC)c1nc(N2CCOCC2)c(C#N)c2c1CN(C)CC2	inactive: 12.3%
CC(C)Oc1cc(O)c2c(c1)OCC=C2CCC(=O)O	inactive: -2.86% [at 7.69 µM]
CC[C@H]1OC(=O)C[C@@H](O)[C@H](C)[C@@H](O[C@@H]2O[C@H](C)C[C@H](N(C)C)[C@H]2O)[C@@H](CC=O)C[C@@H](C)C(=O)C=C[C@]2(C)O[C@H]2[C@@H]1C	inconclusive: -42.1% [inhibitor]
CCOP(=O)(c1ccccc1)c1nc(-c2ccc(F)cc2)oc1N1CCCCC1 (configuration not stated)	inactive: 3.09%

Compound	activity change, negative = inhibition
C=C(C)CSc1nc(N)c2c3c(sc2n1)CCC3	inactive: -3.51%
CCCCCNc1nc(N2CCCC2)c2c(c1C#N)CCN(C)C2	inconclusive: 49.5% [activator]
FC(F)(F)c1cccc(-n2cccc2/C=N/n2cnnc2)c1	inactive: -0.658%
CCSc1nc(O)c(C2OC(=O)c3c2ccc(OC)c3OC)c(=O)n1-c1ccccc1 (configuration not stated)	inactive: 4%
C#CCSc1n[nH]c(-c2ccco2)n1	inactive: 15.4% [at 7.69 µM]
CC(C)CN1CCC2(CC1)CCN(S(=O)(=O)c1ccccc1)CC2	inconclusive: -67.1% [inhibitor] [at 7.69 µM]
CC(=O)O[C@H]1C(=O)[C@]2(C)[C@H]([C@H](OC(=O)c3ccccc3)[C@]3(O)C[C@H](OC(=O)[C@H](O)[C@@H](NC(=O)c4ccccc4)c4ccccc4)C(C)=C1C3(C)C)[C@]1(OC(C)=O)CO[C@@H]1C[C@@H]2O	inconclusive: 30.9% [activator]
COc1ccc(NC(=O)N2CCCC3(CCN(S(=O)(=O)c4ccccc4)CC3)C2)cc1	inconclusive: -42.5% [inhibitor] [at 7.69 µM]
O=C(c1csnn1)N1CCC2(CC1)CCN(c1ccncc1)CC2	inconclusive: -66.9% [inhibitor] [at 7.69 µM]
Cn1c(=O)c(-c2cccc(C#N)c2)nc2cnc(Oc3ccccc3)nc21	inactive: -0.708% [at 7.69 µM]
CCSc1nc2sc3c(c2c(=O)n1C1CCCCC1)CCN(C)C3	inconclusive: -49.6% [inhibitor]
COc1ccccc1CN1CCCC2(CCN(C(=O)c3cnccn3)CC2)C1	inconclusive: -65.1% [inhibitor] [at 7.69 µM]
O=C(c1nsnc1-c1ccccc1O)N1CCCCC1	inactive: 6.47%
COCC(C)Nc1ncnc2c1cnn2-c1ccc(Cl)cc1 (configuration not stated)	inactive: -6.38%
Cc1noc(C)c1C(=O)N1CCC2(CCN(C(=O)NC(C)C)CC2)CC1	inactive: 5.4% [at 7.69 µM]
CCOC(=O)CSC1=C(C#N)C(=O)NC2(CCCCC2)S1	inconclusive: -39.1% [inhibitor]
CCOC(=O)c1[nH]c2ccc(C)cc2c1N=CN(CC)CC	inactive: -21.2%
CCOC(=O)C1=C(CSc2nc(-c3ccncc3)ccc2C#N)OC(N)=C(C#N)C1c1cccnc1 (configuration not stated)	inconclusive: -47.1% [inhibitor]
Cc1c(/C(O)=C2\C(=O)C(=O)N(CCN(C)C)C2c2cccs2)cnn1-c1ccccc1 (configuration not stated)	inactive: -10.6%
CCN(CC)CCNc1nc(-c2ccco2)c2c(c1C#N)CC(C)(C)OC2	inconclusive: -44.2% [inhibitor]
CC1(C)Cc2nc3sc4c(N(CCO)CCO)ncnc4c3cc2CO1	inconclusive: -30.1% [inhibitor]

Source: PubChem BioAssay (NCATS)
